Test results published in the supplement of paper PMC4967469.
A lower IC50 marks a more sensitive line; where the fit passes the top or lowest dose, that dose stands as a limit. AUC, from the same fit, is the share of area under the viability curve across the 256-fold dose range; it is 1 without any effect and falls as sensitivity rises. For some of these results: The top dose, if marked as inferred, is not printed in the source and was worked back from the curve model. For some of these results: An entry number marks a drug with two screens in the source, which often give different values.

Tests used:
Assay in all cases: Viability of human cancer cell lines after 72 h of drug (GDSC screen)
Thapsigargin = compound: C/C=C(/C)C(=O)O[C@H]1C(C)=C2[C@H]([C@@H]1OC(=O)CCCCCCC)[C@@](C)(OC(C)=O)C[C@H](OC(=O)CCC)[C@@]1(O)[C@H]2OC(=O)[C@@]1(C)O [Thapsigargin]; conditions: top dose 0.512 µM; top dose inferred
Protocol: (§1)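 Human cancer cell lines in 384-well plates, medium with 10% serum, drug for 72 h over a 256-fold dose range (nine 2-fold or five 4-fold steps up to the top dose). Adherent lines were fixed and stained with the nucleic acid dye Syto60, suspension lines read with resazurin; signal relative to control wells, capped at 0 and 100%. One two-parameter sigmoid per drug and line, fitted in a mixed model over all curves with the slope shared within a line.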

QL-X-138 = compound: C=CC(=O)Nc1cc(-n2c(=O)ccc3cnc4ccc(-c5cn[nH]c5)cc4c32)ccc1C [QL-X-138]; conditions: top dose 10.24 µM; top dose inferred
Protocol: as §1

GSK269962A = compound: CCn1c(-c2nonc2N)nc2cnc(Oc3cccc(NC(=O)c4ccc(OCCN5CCOCC5)cc4)c3)cc21 [GSK269962A]; conditions: top dose 5 µM; screen: GDSC drug entry 1192; top dose inferred
Protocol: as §1

MPS-1-IN-1 = compound: COc1cc(N2CCC(O)CC2)ccc1Nc1cc(Nc2ccccc2S(=O)(=O)C(C)C)c2cc[nH]c2n1 [MPS-1-IN-1]; conditions: top dose 20 µM; top dose inferred
Protocol: as §1

(5Z)-7-Oxozeaenol = compound: COc1cc(O)c2c(c1)/C=C/C[C@H](O)[C@H](O)C(=O)/C=C\C[C@H](C)OC2=O [(5Z)-7-Oxozeaenol]; conditions: top dose 10 µM; top dose inferred
Protocol: as §1

CP466722 = compound: COc1cc2ncnc(-n3nc(-c4ccccn4)nc3N)c2cc1OC [CP466722]; conditions: top dose 16 µM; top dose inferred
Protocol: as §1

Zibotentan = compound: COc1nc(C)cnc1NS(=O)(=O)c1cccnc1-c1ccc(-c2nnco2)cc1 [Zibotentan]; conditions: top dose 20 µM; top dose inferred
Protocol: as §1

ABT-888 = compound: C[C@]1(c2nc3c(C(N)=O)cccc3[nH]2)CCCN1 [ABT-888]; conditions: top dose 5 µM; top dose inferred
Protocol: as §1

ABT-869 = compound: Cc1ccc(F)c(NC(=O)Nc2ccc(-c3cccc4[nH]nc(N)c34)cc2)c1 [ABT-869]; conditions: top dose 1.024 µM; top dose inferred
Protocol: as §1

CHIR-99021 = compound: Cc1cnc(-c2cnc(NCCNc3ccc(C#N)cn3)nc2-c2ccc(Cl)cc2Cl)[nH]1 [CHIR-99021]
Protocol: as §1

Cytarabine = compound: Nc1ccn([C@@H]2O[C@H](CO)[C@@H](O)[C@@H]2O)c(=O)n1 [Cytarabine]; conditions: top dose 2 µM
Protocol: as §1

KU-55933 = compound: O=c1cc(-c2cccc3c2Sc2ccccc2S3)oc(N2CCOCC2)c1 [KU-55933]; conditions: top dose 10 µM
Protocol: as §1

[1] = top dose 2.56 µM, screen: GDSC drug entry 154
[2] = top dose 10 µM, screen: GDSC drug entry 1241, top dose inferred

Cell Line | AUC (Thapsigargin) | IC50 (Thapsigargin) | AUC (QL-X-138) | IC50 (QL-X-138) | AUC (GSK269962A) | IC50 (GSK269962A) | AUC (MPS-1-IN-1) | IC50 (MPS-1-IN-1) | AUC ((5Z)-7-Oxozeaenol) | IC50 ((5Z)-7-Oxozeaenol) | AUC (CP466722) | IC50 (CP466722) | AUC (Zibotentan) | IC50 (Zibotentan) | AUC (ABT-888) | IC50 (ABT-888) | AUC (ABT-869) | IC50 (ABT-869) | AUC (CHIR-99021; [1]) | IC50 (CHIR-99021; [1]) | AUC (CHIR-99021; [2]) | IC50 (CHIR-99021; [2]) | AUC (Cytarabine) | IC50 (Cytarabine) | AUC (KU-55933) | IC50 (KU-55933)
BT-483 (breast, adherent) | 0.954 | > 0.512 µM | 0.61 | 1.68 µM | 0.975 | > 5 µM | 0.971 | > 20 µM | 0.747 | 6.24 µM | 0.752 | 10.5 µM | 0.971 | > 20 µM | 0.978 | > 5 µM | 0.967 | > 1.02 µM | 0.977 | > 2.56 µM | 0.941 | > 10 µM | 0.975 | > 2 µM | 0.947 | > 10 µM
C3A (liver, adherent) | 0.394 | 0.0161 µM | 0.985 | > 10.2 µM | 0.86 | 4.47 µM | 0.988 | > 20 µM | 0.681 | 2.05 µM | 0.987 | > 16 µM | 0.988 | > 20 µM | 0.988 | > 5 µM | 0.97 | > 1.02 µM | 0.983 | > 2.56 µM | 0.933 | > 10 µM | 0.889 | > 2 µM | 0.979 | > 10 µM
C32 (melanoma, adherent) | 0.73 | 0.153 µM | 0.899 | > 10.2 µM | 0.864 | 4.88 µM | 0.987 | > 20 µM | 0.161 | 0.0524 µM | 0.987 | > 16 µM | 0.983 | > 20 µM | 0.961 | > 5 µM | 0.765 | 0.398 µM | 0.955 | > 2.56 µM | 0.976 | > 10 µM | 0.428 | 0.0784 µM | 0.982 | > 10 µM
C-4-I (cervix, adherent) | 0.311 | 0.00898 µM | 0.915 | > 10.2 µM | 0.856 | 4.56 µM | 0.963 | > 20 µM | 0.604 | 1.24 µM | 0.98 | > 16 µM | 0.986 | > 20 µM | 0.986 | > 5 µM | 0.98 | > 1.02 µM | 0.952 | > 2.56 µM | 0.981 | > 10 µM | 0.673 | 0.396 µM | 0.954 | > 10 µM
CAL-12T (non-small cell lung carcinoma, adherent) | 0.11 | < 0.002 µM | 0.58 | 1.09 µM | 0.94 | > 5 µM | 0.833 | 15 µM | 0.759 | 3.89 µM | 0.649 | 2.73 µM | 0.98 | > 20 µM | 0.961 | > 5 µM | 0.982 | > 1.02 µM | 0.981 | > 2.56 µM | 0.902 | > 10 µM | 0.929 | > 2 µM | 0.893 | > 10 µM
